In all, about 48,000 compounds went through this assay and about 550 (1.1%) were called active. About 4% were inconclusive and are not listed. No stated cut-off is given here; in the data, active means potency below about 15 µM; inconclusive means mostly about 16 µM to 33 µM; inactive means weaker than that. The list shows a part of the results. Bounds are passed on as bounds.
Potency means the concentration at half of the fitted maximal effect.

For the experiment, the target named is Lysosomal acid glucosylceramidase (Homo sapiens) (UniProt P04062). Kind of experiment: Glucocerebrosidase.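 Further: the screen sought inhibitors.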 The settings on record: purified enzyme, resorufin glucoside fluorescence (screen aimed at inhibitors), 20 min; series mostly up to 77 µM. The method, boiled down: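 Wild-type enzyme at 0.2 nM final in 50mM citric acid/KH2PO4, 10mM sodium taurocholate, 0.01% tween-20, pH 5.9, with resorufin beta-D-glucopyranoside at 30 uM final. Compounds titrated, 20 min at RT, red fluorescence read; AC50 from titration.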
Sequence of UniProt P04062 (P04062 whole entry, looked up): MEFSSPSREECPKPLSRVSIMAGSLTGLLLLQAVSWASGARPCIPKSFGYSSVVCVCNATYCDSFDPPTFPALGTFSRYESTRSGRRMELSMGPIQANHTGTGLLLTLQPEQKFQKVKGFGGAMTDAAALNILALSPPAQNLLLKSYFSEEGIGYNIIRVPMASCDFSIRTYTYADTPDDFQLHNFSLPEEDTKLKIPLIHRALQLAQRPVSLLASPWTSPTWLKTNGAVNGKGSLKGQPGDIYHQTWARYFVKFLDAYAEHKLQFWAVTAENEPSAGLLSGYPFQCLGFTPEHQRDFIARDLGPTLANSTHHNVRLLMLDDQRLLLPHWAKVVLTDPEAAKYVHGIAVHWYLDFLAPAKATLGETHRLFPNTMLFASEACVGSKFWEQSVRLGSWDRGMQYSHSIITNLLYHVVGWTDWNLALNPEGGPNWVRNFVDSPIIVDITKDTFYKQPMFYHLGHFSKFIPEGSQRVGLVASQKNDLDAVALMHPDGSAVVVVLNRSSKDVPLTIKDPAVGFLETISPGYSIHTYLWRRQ
`O=C(CSc1nc(-c2ccccc2)cc(C(F)(F)F)n1)NCCN1CCOCC1`: the Potency result is “inactive”.
In the case of `CCOC(=O)C1CCCN(S(=O)(=O)c2ccc(Br)c(OC)c2)C1` (configuration not stated) it was inactive: > 76.9 µM.
Regarding `CN1CC(=O)N(CC(=O)NCc2ccc(F)cc2)c2ccccc2C1=O`, the Potency is inactive: > 76.9 µM.
In the case of `C=CCn1c(Cc2c[nH]c3ccccc23)n[nH]c1=S` it was inactive: > 76.9 µM; in that of `CCc1ccc(NC(=O)CS(=O)CC(=O)NCC2OCCc3ccccc32)cc1` (configuration not stated), inactive: > 76.9 µM.
For `O=C(NC1CC2CCCC(C1)N2C(=O)NC1CCCCC1)c1ccc(F)cc1` (configuration not stated) the value was inactive: > 76.9 µM; for `CC1=C(C#N)C(c2ccc3ncccc3c2)C(C#N)=C(C)N1`, inactive: > 76.9 µM; for `CCN(CC(=O)Nc1ccc(S(N)(=O)=O)cc1)S(=O)(=O)c1cc(C)ccc1OC`, inactive: > 76.9 µM.
For `O=C(CCSc1nc2cc(Cl)ccc2o1)N1CCOCC1` the value was inactive: > 76.9 µM; for `CCOC(=O)c1c(-c2cccs2)csc1NC(=O)CSc1ncn[nH]1`, inactive: > 76.9 µM; for `COc1ccc(C(=O)Nc2cccc(C)c2)cc1S(=O)(=O)N1CCOCC1`, inactive: > 76.9 µM.
Regarding `COc1cc(OC)cc(C(=O)N2CCN(c3ccccc3F)CC2)c1`, the Potency was inactive: > 76.9 µM.
For `CC(=O)Nc1ccc(C(=O)CSc2nnc(Cn3nnc4ccccc43)n2C)cc1`, the Potency was inactive: > 76.9 µM.
In the case of `O=C(NCCc1ccccc1)C1CCN(S(=O)(=O)c2cccc3nonc23)CC1` it was inactive: > 76.9 µM; in that of `O=C(NC1CC1)c1scc2c1OCCO2`, inactive: > 76.9 µM.
For `c1ccc(C(Cc2nc(-c3ccncc3)no2)c2ccccc2)cc1` the value was inactive: > 76.9 µM; for `O=C(c1ccccc1)N1CCN(CC2CC=CCC2)CC1` (configuration not stated), inactive: > 76.9 µM.
For `Cc1ccc(S(=O)(=O)N2CCN(C(=O)CN3C(=O)NC4(CCOc5ccccc54)C3=O)CC2)cc1` (configuration not stated) the value was inactive: > 76.9 µM; for `COc1cccc(C(=O)Nc2ncc3c(n2)CC(C)(C)CC3=O)c1`, inactive: > 76.9 µM; for `Cc1c(C(=O)O)sc2ncnc(N3CCCCC3C)c12` (configuration not stated), inactive: > 76.9 µM.
Consider `CCOC(=O)c1c(C)nc(-c2ccccc2)nc1NC(=O)C(C)C`, for which the Potency is inactive: > 76.9 µM.
For the compound `COc1cc(CSc2nnnn2-c2ccc(C)cc2)cc(OC)c1OC`, the Potency was inactive: > 76.9 µM.
For `CC(=O)NCCc1cc2ccc(C)cc2[nH]c1=O` the value was inactive: > 76.9 µM; for `CCOCC(=O)Nc1cc(-c2cn3cccnc3n2)ccc1C`, inactive: > 76.9 µM.
For `CCOC(=O)COn1c(=O)c(=O)n(OC)c2ccccc21` the value was inactive: > 76.9 µM.
In the case of `Cc1cc(C(F)(F)F)nn1CC(=O)NCc1ccccc1` it was inactive: > 76.9 µM; in that of `Cc1cc(C)n2nc(SCC(=O)Nc3c(C)nn(-c4ccccc4)c3C)nc2n1`, inactive: > 76.9 µM.
For `Cc1ccccc1C1CC(c2ccccc2OC(F)F)Nc2ncnn21` (configuration not stated), the Potency is inactive: > 76.9 µM.
As to `O=C(NCC(O)c1ccccc1)c1cccc(S(=O)(=O)N2CCOCC2)c1` (configuration not stated), the Potency is inactive: > 76.9 µM.
Consider `Cc1ccc(C(=O)CSc2nnc(-c3ccco3)o2)o1`, for which the Potency is inactive: > 76.9 µM.
In the case of `COc1ccccc1-n1c(SCC(=O)N2CCCC2)nc2cccnc21` it was inactive: > 76.9 µM.
For `CC(C)CC(c1nnnn1C1CCCC1)N1CCN(C(=O)c2ccco2)CC1` (configuration not stated) the value was inactive: > 76.9 µM.
`Cc1ccc(-c2nnn(CC(=O)N(c3ccccc3F)C(C(=O)NC3CCCC3)c3ccco3)n2)o1` (configuration not stated): the Potency is inactive: > 76.9 µM.
For `Cc1noc(C)c1S(=O)(=O)Nc1c(C)n(C)n(-c2ccccc2)c1=O` the value was inactive: > 76.9 µM; for `COCCCNC(=O)CCn1c(=O)c2ccccc2n(CC(=O)Nc2ccccc2C)c1=O`, inactive: > 76.9 µM.
In the case of `COc1ccc(-c2noc(CN(C)S(=O)(=O)c3ccc(Cl)cc3)n2)cc1OC` it was inactive: > 76.9 µM; in that of `CCOc1ccc(CC(=O)C2C(=O)CCCC2=O)cc1OCC`, inactive: > 76.9 µM.
For `Cc1ccc(Nc2nc(N)nc(CSc3nnnn3-c3ccccc3)n2)cc1` the value was inactive: > 76.9 µM.
For the compound `Fc1ccc(N2CCN(C(c3cccs3)c3nnnn3C3CCCC3)CC2)cc1` (configuration not stated), the Potency was inactive: > 76.9 µM.
For `CCN(CC)Cc1cc(CC(C(N)=O)C(N)=O)ccc1OC` the value was inactive: > 76.9 µM.
For `Cc1cccc(C(=O)N2CCC(n3nnc4cc(F)ccc43)CC2)c1` the value was inactive: > 76.9 µM; for `COc1ccc(-c2cc(C(=O)N3CCCc4ccccc43)no2)cc1`, inactive: > 76.9 µM.
In the case of `CCOC(=O)c1c(N)nn(C(=O)CC)c1-c1ccccc1` it was inactive: > 76.9 µM; in that of `COc1ccc(OC)c(C(C(=O)NCc2ccco2)N(C(=O)Cn2nnc3ccccc32)C2CC2)c1` (configuration not stated), inactive: > 76.9 µM.
For `CC(=O)c1c(N=CN(C)C)nc(C)nc1-c1ccccc1`, the Potency is inactive: > 76.9 µM.
In the case of `CCOc1ccccc1N(C(=O)CNC(=O)c1ccco1)C(C(=O)NC1CCCC1)c1cccnc1` (configuration not stated) it was inactive: > 76.9 µM; in that of `COCCSc1nnc(NC(=O)CSc2ccccc2)s1`, inactive: > 76.9 µM; in that of `CC(C)(/C=N/O)/[N+]([O-])=C/c1ccco1`, inactive: > 76.9 µM.
For `O=C(OCC(=O)c1c[nH]c2ccccc12)C1=COCCO1` the value was inactive: > 76.9 µM; for `Cc1cccc(NC(=O)Cn2c(C)c(C#N)c3ccccc32)c1C`, inactive: > 76.9 µM; for `CCn1c(=O)cc(SCC(=O)N2CCN(c3ccccc3OC)CC2)c2ccccc21`, inactive: > 76.9 µM.
In the case of `CC(=O)c1cc2c(cc1NC(=O)CCc1ccccc1)OCO2`, the Potency was inactive: > 76.9 µM.
For `Cc1ccc(-n2nc3c(c2NC(=O)c2ccc4c(c2)OCO4)CSC3)c(C)c1` the value was inactive: > 76.9 µM; for `Cc1cccc(N2CCN(C(=O)CSCc3c(C)noc3C)CC2)c1C`, inactive: > 76.9 µM; for `CC(C)Oc1ccc(NC(N)=O)cc1`, inactive: > 76.9 µM.
In the case of `COc1ccc(C2=C(O)C(C)N(c3ccccc3)C2=N)cc1OC` (configuration not stated) it was inactive: > 76.9 µM; in that of `Cc1cc(N2CCC3(CC2)OCCO3)n2nc(C)c(-c3ccc(Cl)cc3)c2n1`, inactive: > 76.9 µM.
In the case of `O=C(O)C1CCCCC1C(=O)Nc1ccc2c(c1)CCC2` (configuration not stated) it was inactive: > 76.9 µM; in that of `CCOC(=O)c1c(NC(=O)Cn2c(C)nc3ccccc32)sc2c1CCC2`, inactive: > 76.9 µM; in that of `CCCCC(=O)Nc1ccc(Cl)cn1`, inactive: > 76.9 µM.
On to `O=C(CC(NS(=O)(=O)c1ccc(Cl)cc1)c1ccco1)NCc1cccnc1` (configuration not stated), for which the Potency is inactive: > 76.9 µM.
In the case of `Cc1cc(OCC(=O)NCCN2CCOCC2)ccc1Br` it was inactive: > 76.9 µM; in that of `CCCCOc1ccccc1NC(=O)CSc1nnnn1C(C)(C)C`, inactive: > 76.9 µM; in that of `COC(=O)c1cn(NC(=O)CC2CCCCC2)c(=O)c2ccccc12`, inactive: > 76.9 µM.
For `CCOCCCNC(=O)C1CCC(=O)N1CCc1ccccc1` (configuration not stated) the value was inactive: > 76.9 µM; for `COc1nc(N)nc(CC(=O)C2CC2)n1`, inactive: > 76.9 µM.
For `CCn1c2ccccc2c2cc(C3N=C(N)Nc4nc5ccccc5n43)ccc21` (configuration not stated) the value was inactive: > 76.9 µM; for `CC(C)(C)C(=O)c1no[n+]([O-])c1/C(=N/O)C(C)(C)C`, “inactive”.
`CCN1/C(=C/C(C)=O)Sc2ccc(OC)cc21`: the Potency is inactive: > 76.9 µM.
For `CCOC(=O)C1CCCN(C(=O)CNS(=O)(=O)c2ccc(Br)s2)C1` (configuration not stated) the value was inactive: > 76.9 µM.
In the case of `CCOc1ccc(S(=O)(=O)Nc2ccc(Cl)cn2)c(C)c1C` it was inactive: > 76.9 µM; in that of `O=C(O)c1ccccc1C(=O)N1CCN(c2ccccc2)CC1`, inactive: > 76.9 µM.
In the case of `COc1ccccc1NC(=O)Nc1ccc2c(c1)OCCO2` it was inactive: > 76.9 µM; in that of `CCc1cc2c(NCC3CCCO3)ncnc2s1` (configuration not stated), inactive: > 76.9 µM.
As for `COCCN(C(=O)COc1ccccc1)c1nnc(-c2cccnc2)s1`, the Potency is inactive: > 76.9 µM.
For `CCCCC(c1nnnn1CCOC)N1CCN(c2cccc(OC)c2)CC1` (configuration not stated) the value was inactive: > 76.9 µM; for `O=S(=O)(NCc1ccccc1Cl)c1cnc[nH]1`, inactive: > 76.9 µM; for `O=C(c1cccc(-n2cnnn2)c1)N1CCOCC1`, inactive: > 76.9 µM.
In the case of `COCC(=O)NC1CCN(C(=O)NCc2ccccc2)CC1` it was inactive: > 76.9 µM.
In the case of `COc1ccc(NC(C)=O)cc1NC(C)C(=O)Nc1ccccc1F` (configuration not stated) it was inactive: > 76.9 µM; in that of `CCOc1cc(C(=O)Nc2ccon2)cc(OCC)c1OCC`, inactive: > 76.9 µM; in that of `O=C(CCc1ccccc1)Nc1nc2ccc(S(=O)(=O)N3CCOCC3)cc2s1`, inactive: > 76.9 µM.
As for `COC(=O)CSc1cc(C(=O)c2nccn2C)c2ccccc2n1`, the Potency was inactive: > 76.9 µM.
In the case of `Cc1cc(C)c(S(N)(=O)=O)c(C)c1-n1cnnn1`, the Potency was inactive: > 76.9 µM.
For `Cc1ccc(S(=O)(=O)NC(=O)NCc2ccccn2)cc1` the value was inactive: > 76.9 µM; for `O=C(NC1CCS(=O)(=O)C1)C1CCCCN1S(=O)(=O)c1ccc(Cl)cc1` (configuration not stated), inactive: > 76.9 µM.
Turning to `COc1ccc(NC(=O)N(CCN2CCCC2)Cc2cc3cc(OC)c(OC)cc3[nH]c2=O)cc1`, the Potency was inactive: > 76.9 µM.
As to `O=C(c1ccccc1)c1ccccc1C(=O)N1CCCC1`, the Potency is inactive: > 76.9 µM.
In the case of `CCOC(=O)C1C(=O)CC(C)(O)C(C(=O)OCC)C1c1ccc(C)s1` (configuration not stated) it was inactive: > 76.9 µM.
For `COc1cccc(C(=O)N(Cc2cc3cc(C)ccc3[nH]c2=O)C(C)C)c1` the value was inactive: > 76.9 µM.
For `COc1ccc(NC(=O)c2cncc(Br)c2)c(S(=O)(=O)N2CCOCC2)c1` the value was inactive: > 76.9 µM.
In the case of `CCOc1nc(-c2ccc(C)cc2)ccc1-c1noc(-c2cccnc2)n1`, the Potency is inactive: > 76.9 µM.

(Values after PubChem BioAssay AID360 (National Center for Advancing Translational Sciences (NCATS), 2006).)
